Test results: PubChem BioAssay AID652104 (National Center for Advancing Translational Sciences (NCATS), 2013)
Out of some 410,000 compounds screened, about 7,200 (1.8%) were called active. Inconclusive means that the source gave no clear call. Such entries were picked first, then a sample of the others. The call rests on the fitted dose curve; in most records, active means well fitted activation curve with a large enough effect; inconclusive means small, poorly fitted or top-dose-only effect, or another doubt; inactive means no such curve, though single readings can be large or run the other way. No potency is given beside an inconclusive call; the fits are too rough.

Experiment: qHTS of TDP-43 Inhibitors; further: nearly all actives have a fitted effect of over 50% in size; on growth rescue (activation): % of control where 0% means no effect
Details: TDP-43 expressing yeast growth rescue, BacTiter-Glo, 24 h; growth rescue (activation): at 46.1 µM (top of the series) unless noted
Summary of the method: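 Galactose-induced TDP-43 yeast, OD600=0.02, compound pinned; 24 hr, 30 deg C; BacTiter-Glo luminescence for growth. Inhibitors of TDP-43 toxicity read as activators.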
Potency means the concentration at half of the fitted maximal effect; tags describe the fitted curve by direction and shape.

SMILES	Potency	growth rescue (activation)
O=C(/C=C/c1cccc(Cl)c1)NCCc1ccccc1	inconclusive [activator, partial curve]	–
Cc1cccc(OCC(=O)Nc2nnc(S(=O)(=O)N3CCc4ccccc43)s2)c1	–	inactive: 6.1%
COc1ccc(Nc2cc(Cl)ccc2C(=O)O)cn1	active: 10 µM	–
COc1ccc(C(C)(O)c2nc(-c3cccc(O)c3)cs2)cc1 (centres undefined)	inconclusive [activator, partial curve, poor fit]	–
O=S(=O)(NCc1nc2cccnc2n1Cc1ccccc1Cl)c1ccc(F)c(Cl)c1	–	inactive: 0%
CC(=O)NCCCc1nc2ccccc2n1Cc1ccccc1F	–	inactive: -15.9%
O=C(Nc1ccc(F)c(Cl)c1)c1cc(C2CCCN(S(=O)(=O)c3cccc4cccnc34)C2)on1 (centres undefined)	inconclusive [activator, partial curve, poor fit]	–
O=S(=O)(c1cccs1)N1CCN(Cc2nc3ccccc3s2)CC1	inconclusive [activator, full curve]	–
CC(C)(C)c1cc(C(=O)NNc2cccc(Cl)c2)n(Cc2ccccc2)n1	inconclusive [activator, partial curve]	–
Cc1cccc(N2CCN(C(=O)CS(=O)(=O)Cc3nc(-c4ccccc4C)oc3C)CC2C)c1 (centres undefined)	active: 25.1 µM	–
Cc1ccc(OCc2ccc([N+](=O)[O-])cc2)c([N+](=O)[O-])n1	–	inactive: 20.7%
O=C(/C=C/c1ccc(Cl)cc1)N1CCN(c2ccc(Cl)cc2[N+](=O)[O-])CC1	inconclusive [activator, single point]	–
COc1ccc(CNC(=O)CSc2nc3ccc(N)cc3s2)cc1	inconclusive [activator, partial curve]	–
COc1ccc(OCC(=O)Nc2ccc(-c3nc4cc(C)cc(C)c4o3)cc2)cc1	–	inactive: 1.02%
Cc1cc(Nc2ccccc2Cl)nc(-c2ccccc2O)n1	inconclusive [activator, single point]	–
Cc1ccc(Oc2ncnc3sccc23)cc1	inconclusive [activator, partial curve]	–
CCN(C(=O)COC(=O)C1CCN(S(=O)(=O)c2ccc3c(c2)OCCO3)CC1)C1CCS(=O)(=O)C1 (centres undefined)	inconclusive [activator, single point]	–
CN(CCCNC(=O)C1CCCN(S(=O)(=O)c2cnc[nH]2)C1)c1ccccc1 (centres undefined)	inconclusive [activator, full curve, poor fit]	–
Cc1ccc(CNC(=O)C2CCN(S(=O)(=O)N3CCCCC3)CC2)cc1	inconclusive [activator, full curve, poor fit]	–
CS(=O)(=O)N1CCN(c2nc(-c3ccccc3)cs2)CC1	inconclusive [activator, partial curve]	–
Cc1onc(-c2ccccc2)c1C(=O)OCC(=O)c1ccc(F)cc1	active: 20 µM	–
CC(C)(C)NC(=O)C[C@H]1C[C@H](C(=O)N2CCCCC2)[C@@]2(CCc3ccccc3)c3[nH]c4ccc(Cl)cc4c3CCN2C1=O	inconclusive [activator, single point]	–
Cc1ccc(C(=O)/C=C/c2ccccc2)o1	inconclusive [activator, partial curve]	–

SMILES	Potency	growth rescue (activation)
CN(CC(=O)N1CCN(c2cccc(Cl)c2)CC1)S(=O)(=O)c1cccs1	inconclusive [activator, single point]	–
CC1CN(C(=O)N2CCC(C(=O)NCCCc3ccccc3)CC2)c2cc(Cl)ccc2O1 (centres undefined)	inconclusive [activator, partial curve]	–
C=CCNC(=S)N/N=C/c1ccc(C(F)(F)F)cc1	inconclusive [activator, partial curve]	–
Nc1nc2ccccc2cc1C(=O)NCCCCc1ccccc1	active: 28.2 µM	–
CC(=O)Nc1cccc(NC(=O)c2cc3c(=O)n4cccc(C)c4nc3n2C)c1	–	inactive: 1.24%
Cc1ccc(C2=CC(=O)C[C@H](c3ccc(F)cc3)C2)cc1	active: 15.8 µM	–
O=C1CC(c2ccccc2)Oc2ccc(Cl)cc21 (centres undefined)	inconclusive [activator, partial curve]	–
CCC(c1nnnn1-c1ccc2c(c1)OCCO2)N1CCN(c2cc(C)ccc2C)CC1 (centres undefined)	inconclusive [activator, partial curve]	–
COc1ccc2c(c1)c1c(c(=O)n(CCc3ccccc3)c(=O)n1Cc1cccc(Cl)c1)n2C	–	inactive: 21.6%
COc1ccc(CC(=O)Nc2nc3c(s2)CC(C)CC3)cc1 (centres undefined)	active: 12.6 µM	–
Cc1ccc(NC(=O)C2CCCN(S(=O)(=O)c3ccc4[nH]c(=O)ccc4c3)C2)cc1Cl (centres undefined)	inconclusive [activator, partial curve]	–
Nc1nc2ccc(Br)cc2s1	inconclusive [activator, partial curve]	–
CC1(C)OC(=O)N(c2ccccc2)C12C=Cc1c(ccc3ccccc13)O2 (centres undefined)	inconclusive [activator, full curve, poor fit]	–
CC(=O)Nc1ccc(N2C(=O)CSC2c2c(F)cccc2Cl)cc1 (centres undefined)	–	inactive: 5.9%
COc1ccc(-n2ncc3c(NCCCOC(C)C)ncnc32)cc1	inconclusive [activator, single point]	–
Cc1ccc(CNC(=O)c2ccc([N+](=O)[O-])o2)cc1	inconclusive [activator, single point]	–
O=C(CCl)Nc1cn(-c2ccccc2)nc1-c1ccccc1	inconclusive [activator, single point]	–
Cn1cc(-c2coc3c(C(=O)NCc4cccs4)cccc23)cn1	inconclusive [activator, full curve]	–
COc1ccccc1Nc1nc(-c2c(C)[nH]c3ccccc23)cs1	inconclusive [activator, partial curve]	–
Cc1ccc(CNC(=O)CSc2ncc3c(n2)-c2cc(Cl)ccc2N(C)S3(=O)=O)cc1	–	inactive: 5.3%
O=C(CCl)c1ccc2c(c1)CCN2C(=O)C1CCCCC1	–	inconclusive: -64.2% [activator]
O=C(Nc1ncc(Br)s1)C(Cc1ccccc1)n1cccc1 (centres undefined)	–	inconclusive: -90.4% [activator]
CN(c1ccc2nc3ccccc3c(=O)n2n1)C1CCCCC1	inconclusive [activator, partial curve]	–

SMILES	Potency	growth rescue (activation)
O=C(NC(=S)N(CCc1ccccc1)CCc1ccccc1)c1ccco1	inconclusive [activator, single point]	–
CCc1ccc(NC(=O)c2noc3c2CCC3)cc1	active: 11.2 µM	–
COc1cccc(CN(C)C(=O)c2ccc(Cl)c(S(=O)(=O)N3CCCCCC3)c2)c1OC	inconclusive [activator, partial curve]	–
CCOC(=O)c1c(/N=C/N(C)C)sc(C(=O)OC)c1C	inconclusive [activator, single point]	–
CC(C)(C)NC(=O)COC(=O)c1snc(C(=O)NC2CCCCC2)c1N	inconclusive [activator, partial curve]	–
COc1cccc(OCCn2cc(/C=N/NC(=O)c3ccncc3)c3ccccc32)c1	inconclusive [activator, partial curve]	–
Cc1nc(Nc2c(Cl)cccc2Cl)sc1C(=O)Nc1ccccc1	inconclusive [activator, single point]	–
Cc1ccccc1OCC(=O)NNC(=S)NC(=O)c1ccco1	active: 7.08 µM	–
Cc1ccc(NCc2cccn2-c2nnc(N3CCC(C(=O)NCCc4ccc(Cl)cc4)CC3)s2)cc1	active: 35.5 µM	–
O=C1COC(c2ccccc2)=CN1Cc1ccccc1	inconclusive [activator, partial curve]	–
O=C(NC1CCCCCC1)C1CCN(C(=O)c2ccc(Cl)cc2)CC1	inconclusive [activator, partial curve]	–
CCOC(=O)c1cnc2cc(-c3ccc(OCC)cc3)nn2c1-c1ccccc1	–	inactive: 8.97%
CCCc1nnc(SCC(=O)Nc2cccc(Cl)c2Cl)o1	inconclusive [activator, partial curve]	–
Cc1cc(NC(=O)n2ncc3c(C)cccc32)ccc1Br	–	inactive: 22.4% [at 9.22 µM]
Cc1ccc2c(c1)c(C)c(C)n2CC(O)Cn1nc(C)cc1C (centres undefined)	inconclusive [activator, single point]	–
Cc1c(NC(=O)c2cnn3c(C(F)(F)F)cc(-c4ccco4)nc23)c(=O)n(-c2ccccc2)n1C	–	inactive: 2.83%
O=C(NCCCN1CCOCC1)c1cc2ccccc2oc1=O	–	inactive: 6.69%
Fc1cccc(CCN2C(=S)NC[C@@H]2Cc2ccccc2)c1	inconclusive [activator, single point]	–
CC(C)(C)S(=O)N1Cc2cc(C(=O)Nc3ccc(-c4ccccc4)cc3)nc(-c3cccc(-c4cc5ccccc5o4)c3)c2[C@@H]1CCO (some centres undefined)	inconclusive [activator, single point]	–
O=C(O)C(c1ccccc1)N1C(=O)/C(=C\c2ccc(-c3ccccc3Cl)o2)SC1=S (centres undefined)	–	inactive: -4.61%
CC(=O)c1cccc(N(C(=O)CNC(=O)c2ccco2)C(C(=O)NCC2CCCO2)c2ccccc2)c1 (centres undefined)	–	inactive: -14.2%
COc1ccc(C)cc1NC(=O)C(=O)NCC(c1cccnc1)N1CCc2ccccc21 (centres undefined)	inconclusive [activator, single point]	–
CC(=O)Nc1ccc(S(=O)(=O)Oc2ccccc2N2CCCCC2)cc1	inconclusive [activator, single point]	–
